# According to the supplement of paper PMC10037445:
# Over roughly 2,900 compounds, “NF-kB SEAP reporter activity, fold change vs agonist alone” has its median near 0.99; the highest 2% begin near 2.6. This is one part of the list.
# How the values were obtained:
# RAW-Dual [1] = assay: NF-kB SEAP reporter activity, fold change vs agonist alone; cytotoxicity flag (confluency mask): not cytotoxic; higher = enhanced NF-kB activity
# Outline: (§1)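 Library stock was pin-tooled at 50 nL into 384-well plates of RAW-Dual macrophages (50,000 cells/well, DMEM), followed 1 h later by a PRR agonist, and the cells were kept at 37 °C, 5% CO2. Supernatant collected after 20 hours was read for IRF by QuantiLuc luminescence and for NF-κB by QuantiBlue absorbance at 620 nm. Reporter activity is fold change over agonist-alone wells, and a well counted as cytotoxic when its IncuCyte confluency was below 70% of agonist controls in both mask sets.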
# RAW-Dual [2] = assay: NF-kB SEAP reporter activity, fold change vs agonist alone; higher = enhanced NF-kB activity; conditions: library stock concentration (final ~1000-fold dilution): 10 mM
# Outline: as §1
# RAW-Dual [3] = assay: NF-kB SEAP reporter activity, fold change vs agonist alone; cytotoxicity flag (confluency mask): cytotoxic (confluency <70% of control); higher = enhanced NF-kB activity
# Outline: as §1
# [4] = agonist: ODN 1826 (TLR9) 0.5 ug/mL
# [5] = agonist: Pam2CSK4 (TLR2/6) 0.1 ug/mL
# [6] = agonist: Pam3CSK4 (TLR2/1) 0.1 ug/mL
# [7] = cytotoxicity flag (confluency mask): not cytotoxic, agonist: Imiquimod (TLR7) […]
# [8] = cytotoxicity flag (confluency mask): not cytotoxic, agonist: MPLA (TLR4) […]
compound,measurement,setting,value
O=C(NCc1cccc(O)c1)Nc1nc(-c2ccncc2)cs1 (library stock concentration (final ~1000-fold dilution): 10 mM),NF-kB SEAP reporter activity,RAW-Dual [1]; agonist: LPS (TLR4) 0.1 ug/mL,1.01
same,NF-kB SEAP reporter activity,RAW-Dual [1]; [4],1.21
same,NF-kB SEAP reporter activity,RAW-Dual [1]; [5],1.24
same,NF-kB SEAP reporter activity,RAW-Dual [1]; [6],1.88
O=c1oc2cc(O)ccc2c2ccccc12,NF-kB SEAP reporter activity,RAW-Dual [2]; [7],0.97
same,NF-kB SEAP reporter activity,RAW-Dual [2]; [8],1.04
O=c1oc2cc(O)ccc2c2ccccc12 (library stock concentration (final ~1000-fold dilution): 10 mM),NF-kB SEAP reporter activity,RAW-Dual [1]; agonist: LPS (TLR4) 0.1 ug/mL,0.705
same,NF-kB SEAP reporter activity,RAW-Dual [1]; [4],0.974
same,NF-kB SEAP reporter activity,RAW-Dual [1]; [5],0.656
same,NF-kB SEAP reporter activity,RAW-Dual [1]; [6],0.986
CN1C(C(=O)Nc2ccccn2)=C(O)c2ccccc2S1(=O)=O,NF-kB SEAP reporter activity,RAW-Dual [2]; [7],0.942
same,NF-kB SEAP reporter activity,RAW-Dual [2]; [8],1.02
CN1C(C(=O)Nc2ccccn2)=C(O)c2ccccc2S1(=O)=O (library stock concentration (final ~1000-fold dilution): 10 mM),NF-kB SEAP reporter activity,RAW-Dual [1]; agonist: LPS (TLR4) 0.1 ug/mL,1.29
same,NF-kB SEAP reporter activity,RAW-Dual [1]; [4],1.05
same,NF-kB SEAP reporter activity,RAW-Dual [1]; [5],1.06
same,NF-kB SEAP reporter activity,RAW-Dual [1]; [6],1.14
COc1c(C)c2c(c(O)c1C/C=C(\C)CCC(=O)OCCN1CCOCC1)C(=O)OC2 (library stock concentration (final ~1000-fold dilution): 10 mM),NF-kB SEAP reporter activity,RAW-Dual [3]; agonist: LPS (TLR4) 0.1 ug/mL,0.479
same,NF-kB SEAP reporter activity,RAW-Dual [3]; [4],0.439
same,NF-kB SEAP reporter activity,RAW-Dual [3]; [5],0.176
same,NF-kB SEAP reporter activity,RAW-Dual [3]; [6],0.286
COc1c(C)c2c(c(O)c1C/C=C(\C)CCC(=O)OCCN1CCOCC1)C(=O)OC2,NF-kB SEAP reporter activity,"RAW-Dual [2]; cytotoxicity flag (confluency mask): cytotoxic (confluency <70% of control), agonist: Imiquimod (TLR7) […]",1.24
same,NF-kB SEAP reporter activity,"RAW-Dual [2]; cytotoxicity flag (confluency mask): cytotoxic (confluency <70% of control), agonist: MPLA (TLR4) […]",0.477
NCCS (library stock concentration (final ~1000-fold dilution): 10 mM),NF-kB SEAP reporter activity,RAW-Dual [1]; agonist: LPS (TLR4) 0.1 ug/mL,1.14
same,NF-kB SEAP reporter activity,RAW-Dual [1]; [4],1.13
same,NF-kB SEAP reporter activity,RAW-Dual [1]; [5],1.06
same,NF-kB SEAP reporter activity,RAW-Dual [1]; [6],0.908
NCCS,NF-kB SEAP reporter activity,RAW-Dual [2]; [7],1.02
same,NF-kB SEAP reporter activity,RAW-Dual [2]; [8],1.03
CC(Oc1ccc(S(C)(=O)=O)cc1C(=O)N1CCN(c2ncc(C(F)(F)F)cc2F)CC1)C(F)(F)F (stereo unspecified) (library stock concentration (final ~1000-fold dilution): 10 mM),NF-kB SEAP reporter activity,RAW-Dual [1]; agonist: LPS (TLR4) 0.1 ug/mL,0.836
same,NF-kB SEAP reporter activity,RAW-Dual [1]; [4],0.82
same,NF-kB SEAP reporter activity,RAW-Dual [1]; [5],0.703
same,NF-kB SEAP reporter activity,RAW-Dual [1]; [6],0.763
CC(Oc1ccc(S(C)(=O)=O)cc1C(=O)N1CCN(c2ncc(C(F)(F)F)cc2F)CC1)C(F)(F)F (stereo unspecified),NF-kB SEAP reporter activity,RAW-Dual [2]; [7],1.01
same,NF-kB SEAP reporter activity,RAW-Dual [2]; [8],0.944
COc1c(OC2OC(CO)C(O)C(O)C2O)cc2c(c1OC)-c1ccc(SC)c(=O)cc1C(NC(C)=O)CC2 (stereo unspecified),NF-kB SEAP reporter activity,RAW-Dual [2]; [8],1.03
COc1c(OC2OC(CO)C(O)C(O)C2O)cc2c(c1OC)-c1ccc(SC)c(=O)cc1C(NC(C)=O)CC2 (stereo unspecified) (library stock concentration (final ~1000-fold dilution): 10 mM),NF-kB SEAP reporter activity,RAW-Dual [1]; agonist: LPS (TLR4) 0.1 ug/mL,1.05
same,NF-kB SEAP reporter activity,RAW-Dual [1]; [4],0.973
same,NF-kB SEAP reporter activity,RAW-Dual [1]; [5],1.07
same,NF-kB SEAP reporter activity,RAW-Dual [1]; [6],1.03
Cc1nc(NC(=O)N2CCCC2C(N)=O)sc1-c1csc(C(C)(C)C)n1 (stereo unspecified) (library stock concentration (final ~1000-fold dilution): 10 mM),NF-kB SEAP reporter activity,RAW-Dual [1]; agonist: LPS (TLR4) 0.1 ug/mL,0.881
same,NF-kB SEAP reporter activity,RAW-Dual [1]; [4],1.41
same,NF-kB SEAP reporter activity,RAW-Dual [1]; [5],1.32
same,NF-kB SEAP reporter activity,RAW-Dual [1]; [6],1
Cc1nc(NC(=O)N2CCCC2C(N)=O)sc1-c1csc(C(C)(C)C)n1 (stereo unspecified),NF-kB SEAP reporter activity,RAW-Dual [2]; [7],1.01
same,NF-kB SEAP reporter activity,RAW-Dual [2]; [8],0.941
O=C(O)c1ccc(-n2nc(-c3ccccc3O)nc2-c2ccccc2O)cc1,NF-kB SEAP reporter activity,RAW-Dual [2]; [7],1.12
same,NF-kB SEAP reporter activity,RAW-Dual [2]; [8],1.08
O=C(O)c1ccc(-n2nc(-c3ccccc3O)nc2-c2ccccc2O)cc1 (library stock concentration (final ~1000-fold dilution): 10 mM),NF-kB SEAP reporter activity,RAW-Dual [1]; agonist: LPS (TLR4) 0.1 ug/mL,1.37
same,NF-kB SEAP reporter activity,RAW-Dual [1]; [4],1.05
same,NF-kB SEAP reporter activity,RAW-Dual [1]; [5],0.98
same,NF-kB SEAP reporter activity,RAW-Dual [1]; [6],0.979
